# Data: the supplement of paper PMC11417369
# This is one part of the list.
# System: PfAP2-HC AP2 domain (GST-tagged)
# Assay: gcPBM binding intensity (ln(normalized median fluorescence intensity)); higher = stronger DNA binding
# How it was run: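 GST-tagged P. falciparum DNA-binding domains, expressed in E. coli (about 25 μg on average), were applied for 1 h to an Agilent 4 × 180k array of primer-extended double-stranded 36-bp intergenic genomic probes plus negative controls. The binding buffer was 1× PBS with 1% milk, 0.2 mg/ml BSA, 0.5% salmon testes DNA and 0.03% Triton X-100. Bound protein was detected with Alexa488 anti-GST antibody and scanned at 488 nm. Binding intensity is the highest Masliner-normalised natural-log median intensity across replicate spots of either probe orientation.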
row,Sequence,gcPBM binding intensity (ln)
1,TTTTTTATATTTAAACTTCACATGGTTTTCATTTAT [XGTACX_negctrl_site291],9.92
2,ATGTAGGTTAATTATTGTACGTAGGGGGTGTATATT [XGTACX_site3973],10
3,TTCAGAGAATAAAAATGTACATATAATATTTTAAAA [XGTACX_site577],9.55
4,CTCTTGTCATTTTGCACACACACATGTATAGGTTAT [CACACA_site3057],10.2
5,TAAATTTGTGGGATTTCACACAGGTTTATTTACATT [CACACA_site5455],9.75
6,TTGCTTATTAAATGGGGTACATTATATATATATATA [XGTACX_site2515],9.74
7,GTGTTAACTATTATGAGTACTTATGTATTAATTCAT [XGTACX_site7767],9.66
8,TTTCTAATTTATATCACACACATATATTTATAGTAA [CACACA_site6280],9.77
9,GTTTACTAATATTGCACACGAATATGAAAAAGAGAA [CACACA_site2897],9.94
10,AGAGTATATAAAGTAACACACAATAAAATAAAATAA [CACACA_site2328],10.3
11,CATATAGTATAAATTTGTACATAAATATATATATAT [XGTACX_site7477],9.65
12,ATAATATCTTCTTTTTTTTTTTTTTTTTTTTTTTTT [CACACA_negctrl_site1005],9.23
13,AAAAAAAAAAAAAAAAGTACATATATATATAATTAT [XGTACX_site7836],9.9
14,AAATGATGCATTTGTCATTAAAATTGTGAAATATTA [CACACA_negctrl_site231],9.44
15,ATATATATATAATGTGTACACACATATGTATTTATA [CACACA_site8170],9.99
16,TAATTAAGATGATAAAAATTGAAAAAACAATTTTAA [CACACA_negctrl_site658],9.23
17,TATAATAAAATATGTACACACATACAGACATATATA [CACACA_site6693],9.99
18,CTGTTTTACTTTAGTAGTACAATAAAAATATAAAAA [XGTACX_site2934],9.36
19,TATTACCCATATTATACACACATATATTATATATAT [CACACA_site1567],10.2
20,AAAAAAAAAAAACATACACACAAATATATACATACA [CACACA_site4011],10.2
21,TACATACACGGACACACACACATATATATATATATA [CACACA_site5883],10.7
22,AAGAAATATATATATATATATATATATATATATGTA [TGCATGCA_negctrl_site442],9.75

row,Sequence,gcPBM binding intensity (ln)
1,TAATTTTATATTAAAAGTACATAATAAAAACTATAA [XGTACX_site8779],9.48
2,TTTAAAAACAAATATTGTACAAATTAAAATATATCA [XGTACX_site7220],9.6
3,AGAGCATAATAAAACACACACATACATACAGATATA [CACACA_site4671],10.3
4,TGATGATATAAAAACACACACATATAATATAATACT [CACACA_site1208],10.8
5,CACTAATATATATACAGTACATAATAAAGTATATAA [XGTACX_site6875],9.71
6,TTATATTTATAAAGGTGTACCTTAAAATGATTTTAC [XGTACX_site3774],9.38
7,AAAATTAAATAAAAATGTACAGAAATATTATATGAA [XGTACX_site5695],9.76
8,ATATATTATATTAATTGTACATAAAAAAGAGAAAAA [XGTACX_site3366],9.62
9,ATGTATAAACAAAAGGGTACATATATATATATATAT [XGTACX_site2087],9.69
10,AGAAAAATTACAAAATGTACATAATGTGTTATTAAT [XGTACX_site7877],9.72
11,ATTAAGTACTAAAAAGTGCAGTTCGGTACTGTGCTT [GTGCAC_site9755],9.65
12,AATAAAAAACATGAAAGTACTTTAAAAAAGGTAATA [XGTACX_site1897],10.1
13,AAGTACATACATAAAACACACACATATATATATATA [CACACA_site8541],10
14,AATATATAAATCAATAGTACATATATATATATATAT [XGTACX_site3898],9.6
15,ATTAAATATGAGGGAACACACACATGATATATAAAT [CACACA_site8755],10.3
16,TTATATAAAGAATGTACACACAGAAATGCACCCACA [CACACA_site2282],10.6
17,CCAAAAAATATATGTAGTACTACATTATTAAATATG [XGTACX_site5128],9.65
18,AAAAAAAACACGCGCACACACACACCCACAGACACA [CACACA_site5253],10.7
19,TATATATATAAATACACACACACACCCCAAAGCGTA [CACACA_site4211],10.6
20,TATTTTTTAAAAAATTATAAATAAAATTATATTACG [CACACA_negctrl_site324],9.28
21,TATAATATATTCACTCGTACATATTTAATAATATCT [XGTACX_site6209],9.64
22,ACAGTATATTAAAAAATACACACGTATTATATCTAC [CACACA_site2640],9.83

row,Sequence,gcPBM binding intensity (ln)
1,AAATTCAATTTGCGCTGTACATGAAGATATAAATTT [XGTACX_site4844],9.71
2,ATACCTGTTGTGTTACGTACATAATTTTAATGTTTG [XGTACX_site8181],9.93
3,TTTTAATTAAATAAATGTACTCATTCTATTATTTAT [XGTACX_site3032],9.63
4,ATAAATTTTTTATGAACACACAAATACCCACGCTCA [CACACA_site2659],9.88
5,TATTACACATATTATGTGCACATATATAATCAATAT,9.78
6,ATTTTATTTTTGTGCACACTGATAAATTGAAAAGAG [CACACA_site2948],9.61
7,TATATATATATAATATGTACATATATTAAGCATTTT [XGTACX_site4470],9.73
8,AAAAAAAAAAATTAAAGTACTAATTAAAATTATATG [XGTACX_site5289],9.38
9,TTATATATATGTGTATGTACATATATATATATATAT [XGTACX_site1141],9.87
10,AAAAGAATAATAATTTATGTATATTAATTAAAGAAT [XGTACX_negctrl_site402],9.69
11,TATCATATATTATATGCACACATGTTTTTCAAGAAT [CACACA_site1892],9.74
12,TATATAATATTCTACACACCAACAACAAACATATAT [CACACA_site567],10
13,ATATTCTGATTTTAGATGCACTTCGTTAACAAAATA [GTGCAC_site9958],9.41
14,ATATATATATTTATATGTACATAATATAAAATTTCT [XGTACX_site3720],9.63
15,ATAAATCTACACCGCACACAAAAACAACAAATATTA [CACACA_site5396],10.1
16,AATGAATATATATAAATATATATATATATATATATA [CACACA_negctrl_site1494],9.48
17,ATATTTGTATAAATTGCACACTTTATTTTTTTTAAG [CACACA_site1558],9.61
18,ATGTTATTACATAATTGTACATTTTGAGCAATTAAG [XGTACX_site4640],9.51
19,AAACGTAACATATATATATATATATATAAGATATAT [CACACA_negctrl_site126],9.69
20,TTAGCTTTTTTTTAAACATGCAACTACTTGATCCAC [TGCATGCA_site1017],9.5
21,TTTTTTTTTTTTTCTTCACACACAGTACTACTATTT [CACACA_site8759],10.1
22,GGTATATGCATAAAGAGTACGTAACTTCTTTTTGTT [XGTACX_site6344],9.7

row,Sequence,gcPBM binding intensity (ln)
1,ATAAGATGATTAATTACACACTTTATAGGATATTTA [CACACA_site1711],9.6
2,AAATGTGTAAATATAATTAGTTTCACAAAACAAATA [GTGCAC_negctrl_site543],9.76
3,TATTTATTATTATGTACACACTATATTAAAACATAA [CACACA_site4549],9.56
4,AGTATACGCAGACACACACACACATATATATATATA [CACACA_site1735],10.8
5,TATGTGAATCCTAAGTGTACACATCTTACATATATA [XGTACX_site2506],9.8
6,GTTGAACATAGATGCACACACATAAAATAAAAAAAA [CACACA_site5353],10.1
7,ACATATATATATAAATATATATATATATAAATATAT [CACACA_negctrl_site895],9.7
8,TGTTTAAATTTTTTGTTTTTTTTTTTATAAAGCAAA [TGCATGCA_negctrl_site313],9.25
9,TGAAGGTCAGTTCACAGTACCCAGTAACTCTACGGA [XGTACX_site2554],9.42
10,TATATTTTTTTAAAAAGTACTTTGTATATATATATA [XGTACX_site1300],9.57
11,TTGTTGTTATTTAAAACACACATCAATCATCTTAAC [CACACA_site1142],9.72
12,TTAAATTAAAACAAATGTACAAAGTGCATATTTTTT [XGTACX_site8143],9.43
13,ATTTTTTTTTCTTTCGCACACGTGAAAGAATTTCTA [CACACA_site2052],9.9
14,ATATTATATTATATAACACACATTTTTCATAACACT [CACACA_site407],9.91
15,ATAATTTAATACTAGTGTACAGAAAAAAAAAAAAAA [XGTACX_site6756],9.59
16,TTACGCATACTAATTACACACAAATAGATGAATATA [CACACA_site1338],9.69
17,ATAAAAAAATAAATTAGTACATATATATATATATAT [XGTACX_site6971],9.55
18,TATTGTTATGTCGTTATTAACTTTCTTTAATTAATT [CACACA_negctrl_site174],9.7
19,AAATATTCATAGTATACACACATTTATATATAATCA [CACACA_site771],9.76
20,TGAAAGTTCAATAATTGTACATGTGGAAATTCATAC [XGTACX_site1378],9.69
21,AAAATTATAAATCTTGCACACAAAAAAAATAATAAA [CACACA_site8771],9.83
22,TTTTCATTTATGTATATATTTATTTTGATTTAATGT [GTGCAC_negctrl_site607],9.66
